Results on 68 compounds are retold here after PubChem BioAssay AID1362 (SRMLSC, 2008).

This is one part of the list. Further columns of the screen follow, without active or inactive calls. The list favours compounds with an active or inconclusive main result.

The test can be described thus: growth inhibition of WT strain, primary screen, mitochondrial fusion inhibitor project, WT and mutant strains, chemical genetic (AID 1362). Further: tested in S. cerevisiae. The settings on record: mitochondrial fusion phenotypic screen, at 10 µM.
For `Cc1ccc(C)c(NC(=S)N(Cc2ccco2)C(C)c2cccs2)c1` (stereo not drawn), the inhibition worked out at 19.8%. On to `CCOC(=O)c1c(C)sc(Sc2ccc(Cl)cc2[N+](=O)[O-])c1OC`, for which the inhibition was determined as 56.2%. In the case of `CC(Sc1nc2ccccc2n1C)C(=O)NC(c1ccccc1)c1ccccc1` (stereo not drawn) it was 24.7%; in that of `COC(=O)c1[nH]c2cccc(Cl)c2c1NC(=O)CN(C)C1CCCCC1`, 45.9%. In the case of `c1ccc2c(c1)CCN(c1ncnc3c1[nH]c1ccccc13)C2` it was -2.77%; in that of `Cc1[nH]n(C2=NCCS2)c(=O)c1N=Nc1cccc(C(F)(F)F)c1`, 79.1%. For `CC(=O)Nc1ccc(NC(=O)CSc2nnc(-c3ccccc3)n2Cc2ccc3c(c2)OCO3)cc1` the value was 18.5%; for `COc1ccc(-c2nnc(SCc3cc(C)cc(C)c3)o2)cc1`, 9.53%; for `CCOC(=O)c1c(C)oc2ccc(OC(=O)c3cccs3)cc12`, 28.9%. On to `O=C(Nc1ccc(Cl)cc1)N1CCC(c2nc(-c3ccccc3Cl)no2)CC1`, for which the inhibition is 64.3%.

Consider `Cc1cc(CC(C)C)n(-c2nc3ccccc3c(=O)n2OCc2ccccc2)n1`, for which the inhibition worked out at 3.84%. As to `CCC(/C=C1\Sc2ccc(OC)cc2N1CCO)=C\c1sc2ccc(OC)cc2[n+]1CCO`, the inhibition is 62.7%. Consider `S=c1[nH]nc(C2CC2c2ccc(Cl)cc2)n1-c1ccc(Cl)cc1` (stereo not drawn), for which the inhibition was found to be 54.9%. As to `Cn1c(C(=O)N2CCc3ccccc3C2)cc2oc3ccccc3c21`, the inhibition is 42.1%.

For `CCNc1nc(NC(C)(C)C)nc(N2CCCC2)n1`, the inhibition came out at 45.5%. Consider `c1cc2c(cc1C1CCCCC1)c1c3n2CCN=C3CCC1`, for which the inhibition is 91.4%. Turning to `CC1CC(C)CN(c2ncnc3c2cnn3-c2ccc(Cl)cc2)C1` (stereo not drawn), the inhibition is 15.7%. For `CCOC(=O)C1C(=O)C=C(c2ccc(Br)cc2)CC1c1ccco1` (stereo not drawn) the value was 25%.

For the compound `CC(C)(C)NS(=O)(=O)c1cnc(Cl)c(Cl)c1`, the inhibition turned out to be 1.14%. For `CCCCOC(=O)Nc1cccc(C(=O)OCC)c1` the value was -3.02%; for `CC1CC(C)CN(c2ncc3c(n2)CC(c2ccccc2)CC3=O)C1` (stereo not drawn), 32.9%; for `COc1ccc(-c2cc3nc(-c4ccccc4)cc(N4CCCC(O)C4)n3n2)cc1` (stereo not drawn), 26.4%. In the case of `CCC(C)(C)NC(=O)C(c1ccc(C)cc1)N(Cc1cccs1)C(=O)c1ccc2c(c1)OCCO2` (stereo not drawn) it was 2.65%; in that of `CC(C)(C)c1ccc(OCCC(=O)NC2=NCCS2)cc1`, 66.7%. In the case of `O=C(/C=C/c1ccc(Cl)cc1)NC(=S)NN1CCCCC1c1cccnc1` (stereo not drawn) it was 23.8%; in that of `O=[N+]([O-])c1ccc(N/N=C/c2c[nH]c3ccccc23)cc1`, 71%; in that of `Cc1ccccc1NC(=S)NCCC(c1ccccc1)c1ccccc1`, 65%. With `Brc1cnc(N2CCCCC2)nc1N1CCOCC1`, the inhibition stood at 3.71%. In the case of `CCCCN=C(NNc1ccc(Br)cc1)C(=O)OCC` it was 56%; in that of `NC(=S)n1[nH]c(-c2ccc([N+](=O)[O-])cc2)c(N=Nc2ccc(Cl)cc2)c1=O`, 26.7%; in that of `COc1ccc(NC(=O)c2ccc(-c3ccccc3C(F)(F)F)o2)cc1`, -0.39%. For `Cc1nn(-c2ccccc2)c(N)c1N=Nc1ccc2ccccc2c1` the value was 67.3%; for `Cn1cccc1/C=C1\CCc2ccccc2C1=O`, 49.6%; for `CC1CN(c2nc3ccccc3cc2-c2ccccc2)CC(C)O1` (stereo not drawn), 67.1%. For `c1ccc2c(c1)ncn2CCCOc1ccc2c(c1)CCC2` the value was 61.4%. `O=S(=O)(Nc1cc(Cl)ccc1N1CCCCC1)c1cccs1`: the inhibition worked out at 39.2%.

For `NS(=O)(=O)c1ccc(N/N=C2/CCCCC2C2CCCCC2)c([N+](=O)[O-])c1` (stereo not drawn), the inhibition stood at 92.5%.

Consider `CO/N=C\c1cc(C(=O)c2ccc(Cl)cc2Cl)cn1C`, for which the inhibition is 31.6%. In the case of `CCOC(=O)/C(C#N)=C1\Nc2ccccc2N=C1N(CC(C)C)CC(C)C` it was 28.5%; in that of `CC(C)C(c1nnnn1C(C)(C)C)N1CCN(c2cccc(Cl)c2)CC1` (stereo not drawn), 53.5%; in that of `O=C(/C=N/O)NCCN1CCCCC1`, 17.7%. For `CSC1=NC(C)(C)C=C(/C=C/c2ccc(Cl)cc2Cl)N1` the value was 63.2%; for `COc1ccccc1-c1c(C)nn2c(N3CCCCCC3)cc(C)nc12`, 55.7%; for `Cc1cc(Cl)ccc1NC(=S)NCCC(c1ccccc1)c1ccccc1`, 17.6%. In the case of `CC(C)(C)c1ccc(Cn2c(=N)n(CC(O)c3ccco3)c3ccccc32)cc1` (stereo not drawn) it was 29.6%; in that of `CC#CC[N+](C)(C)CCCCCCCCCCCC`, 70.2%.

On to `CC(NC(=O)/C(=C/c1ccc(OC(F)F)cc1)c1ccccc1)c1ccccc1` (stereo not drawn), for which the inhibition was 12.6%. As for `S=C1NCCc2ccc(Cl)cc2C1c1ccccc1` (stereo not drawn), the inhibition is 62.3%. `CCOC(=O)c1c(NC(=O)c2cccs2)sc2c1CCN(C(=O)OCC)C2`: the inhibition turned out to be 17.7%. For the compound `CC(C)(C)c1ccc(/C=N/NC(=S)Nc2cccnc2)cc1`, the inhibition was determined as 35%. On to `CCOC(=O)C1=CN(c2cccc(F)c2)C=C(C(=O)OCC)C1c1cc(OC)c(O)c([N+](=O)[O-])c1`, for which the inhibition is -2.03%. For `Cc1ccc(S(=O)(=O)Nc2ccccc2-c2ccccc2NS(=O)(=O)c2ccc(C)cc2)cc1` the value was 17.6%. For `CN1C=C/C(=C\c2cc[n+](C)c3ccccc23)c2ccccc21` the value was 67.9%; for `CCOC(=O)/C(=C/c1ccc(N2CCC(c3ccccc3)=N2)cc1)C(C)=O`, 6.01%; for `Cc1cccc(N2CCN(C(=O)c3cc4c(C)nc5ccccc5c4o3)CC2)c1C`, 7.86%.

As to `COc1ccc(CCn2nnnc2C(CC(C)C)N2CCN(c3ncccn3)CC2)cc1OC` (stereo not drawn), the inhibition stood at 6.51%. For the compound `CCCCn1c2ccccc2c2nnc(SCC(=O)NC3=NN=C(c4ccccc4)CS3)nc21`, the inhibition amounted to 14.8%. For `CC1=NN(/C(=N\c2nnc(C)s2)Nc2ccc(C(C)(C)C)cc2)[C@H](c2ccc(C)cc2)S1` the value was 30.7%; for `CC(Nc1ccc(Cl)cc1)c1cc(Cl)ccc1O` (stereo not drawn), 50.6%; for `CN(C)S(=O)(=O)c1ccc(C(=O)Nc2nnc(-c3ccc4c(c3)CCCC4)o2)cc1`, -6.25%. In the case of `O=C(COc1cccc2ccccc12)Nc1nc2ccccc2[nH]1` it was 54.1%. For `CC1C(c2ccccc2)N(C)C(c2ccccc2)CC1(O)c1ccccc1` (stereo not drawn) the value was 14.6%; for `Clc1ccc(-c2nc(N3CCCCC3)nc3ccccc23)cc1`, 27.8%; for `CCCCNC(=O)C1=C(N)C(C(=O)Nc2ccc(C)c(S(=O)(=O)N3CCCCC3)c2)SC1=Nc1ccc(C)cc1C` (stereo not drawn), -1.36%. Consider `CCCCOC(=O)c1ccc(NC(=O)c2nn(C)cc2Br)cc1`, for which the inhibition was found to be 23.1%. In the case of `O=C(CSCC(=O)N1CCCCC1)Nc1nc(-c2ccc(Cl)s2)cs1` it was 58.9%.

Consider `CC(=O)N1/C(=C/c2ccc(N(C)C)cc2)C(=O)c2ccccc21`, for which the inhibition worked out at 16.4%. For `O=C(C1=C[C@@H](c2csc3ccccc23)C[C@@H](OCc2ccc(CO)cc2)O1)N1CCN(Cc2ccccc2)CC1` the value was 10.2%.
